Assay results: PubChem BioAssay AID320 (DTP/NCI, 2004)
Toxic doses and inconclusive results are not listed. For part of its entries the source gives two or more results. Only these are listed. The source may hold further records. Values that stand side by side are repeated measurements (runs, samples, wells, individuals or studies).

System: BDF1 mice, P329 reticulum cell sarcoma ip, survival T/C
Test: NCI In Vivo Anticancer Drug Screen. Data for tumor model P329 Reticulum Cell Sarcoma (intraperitoneal) in B6D2F1 (BDF1) mice
Conditions: endpoint: median survival time, schedule: Q01DX010 (ip), higher = longer survival
Procedure: The antitumor activity of compounds was measured in mice bearing transplantable tumors. Survival or tumor size were measured and the results are expressed as the measurement made in the treated group (T) divided by the measurement made in the vehicle treated control group (C). The tumor model used in this assay is P329 Reticulum Cell Sarcoma (intraperitoneal) in B6D2F1 (BDF1) mice

Structure (SMILES): CSc1ncnc2nc[nH]c12
- T/C (dose: 50.0 mg/kg/injection, vehicle: saline): 123 % of control and 153 % of control
- T/C (dose: 200.0 mg/kg/injection, vehicle: saline): 123 % of control and 153 % of control

Structure (SMILES): N#CCSc1ncnc2nc[nH]c12
- T/C (dose: 60.0 mg/kg/injection, vehicle: saline): 123 % of control and 153 % of control

Structure (SMILES): CN(Cc1cnc2nc(N)nc(N)c2n1)c1ccc(C(=O)N[C@@H](CCC(=O)O)C(=O)O)cc1
- T/C (dose: 1.5 mg/kg/injection, vehicle: other): 100 % of control, 115 % of control, 166 % of control

Structure (SMILES): CCn1cnc2c(=S)nc[nH]c21
- T/C (dose: 62.5 mg/kg/injection, vehicle: saline): 117 % of control and 169 % of control
